# Reference: the supplement of paper PMC8728848
# This is one part of the list.
# What was measured:
# Experiment in all cases: glycan array binding signal (z-score within array); higher = stronger binding
# Details in all cases: glycan notation: IUPAC condensed, linker removed
# [1] = molecular target: GlcNAc(b1-2)[GlcNAc(b1-4)]Man(a1-3)[GlcNAc(b1-4)][GlcNAc(b1-2)[GlcNAc(b1-6)]Man(a1-6)]Man(b1-4)GlcNAc(b1-4)GlcNAc
# Summary of the method: (§1)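 Columns mapping to the same glycan were averaged after glycan names were converted to IUPAC-condensed notation. The data come from 3228 arrays in the Consortium for Functional Glycomics database, limited to those with an available protein sequence. Binding is reported as a within-array Z-score averaged across arrays of one protein sequence and across linkers.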
# [2] = molecular target: GlcNAc(b1-2)[GlcNAc(b1-4)]Man(a1-3)[GlcNAc(b1-4)][GlcNAc(b1-2)[GlcNAc(b1-6)]Man(a1-6)]Man(b1-4)GlcNAc(b1-4)[Fuc(a1-6)]GlcNAc
# Summary of the method: as §1
# [3] = molecular target: GlcNAc(b1-2)[GlcNAc(b1-6)]Man(a1-6)[GlcNAc(b1-2)Man(a1-3)]Man(b1-4)GlcNAc(b1-4)GlcNAc
# Summary of the method: as §1
# [4] = molecular target: GlcNAc(b1-2)[GlcNAc(b1-6)]Man(a1-6)[GlcNAc(b1-2)Man(a1-3)]Man(b1-4)GlcNAc(b1-4)[Fuc(a1-6)]GlcNAc
# Summary of the method: as §1
# [5] = molecular target: GlcNAc(b1-2)[GlcNAc(b1-6)]Man(a1-6)[GlcNAc(b1-4)][GlcNAc(b1-2)Man(a1-3)]Man(b1-4)GlcNAc(b1-4)GlcNAc
# Summary of the method: as §1
# GlcNAc(b1-3)Fuc = molecular target: GlcNAc(b1-3)Fuc
# Summary of the method: as §1
# GlcNAc(b1-3)Gal = molecular target: GlcNAc(b1-3)Gal
# Summary of the method: as §1
# [6] = molecular target: GlcNAc(b1-3)Gal(b1-3)GalNAc
# Summary of the method: as §1
# GlcNAc(b1-3)Gal(b1-4)Glc = molecular target: GlcNAc(b1-3)Gal(b1-4)Glc
# Summary of the method: as §1
# [7] = molecular target: GlcNAc(b1-3)Gal(b1-4)GlcNAc
# Summary of the method: as §1
# [8] = molecular target: GlcNAc(b1-3)Gal(b1-4)GlcNAc(b1-2)Man(a1-3)[GlcNAc(b1-3)Gal(b1-4)GlcNAc(b1-2)Man(a1-6)]Man(b1-4)GlcNAc(b1-4)GlcNAc
# Summary of the method: as §1
# [9] = molecular target: GlcNAc(b1-3)Gal(b1-4)GlcNAc(b1-2)Man(a1-3)[GlcNAc(b1-3)Gal(b1-4)GlcNAc(b1-2)Man(a1-6)]Man(b1-4)GlcNAc(b1-4)[Fuc(a1-6)]GlcNAc
# Summary of the method: as §1
# [10] = molecular target: GlcNAc(b1-3)Gal(b1-4)GlcNAc(b1-2)[GlcNAc(b1-3)Gal(b1-4)GlcNAc(b1-6)]Man(a1-6)[GlcNAc(b1-3)Gal(b1-4)GlcNAc(b1-2)Man(a1-3)]Man(b1-4)GlcNAc(b1-4)GlcNAc
# Summary of the method: as §1
# [11] = molecular target: GlcNAc(b1-3)Gal(b1-4)GlcNAc(b1-3)Gal(b1-4)GlcNAc
# Summary of the method: as §1
# [12] = molecular target: GlcNAc(b1-3)Gal(b1-4)GlcNAc(b1-3)Gal(b1-4)GlcNAc(b1-2)Man(a1-3)[GlcNAc(b1-3)Gal(b1-4)GlcNAc(b1-3)Gal(b1-4)GlcNAc(b1-2)Man(a1-6)]Man(b1-4)GlcNAc(b1-4)GlcNAc
# Summary of the method: as §1
# [13] = molecular target: GlcNAc(b1-3)Gal(b1-4)GlcNAc(b1-3)Gal(b1-4)GlcNAc(b1-2)Man(a1-3)[GlcNAc(b1-3)Gal(b1-4)GlcNAc(b1-3)Gal(b1-4)GlcNAc(b1-2)Man(a1-6)]Man(b1-4)GlcNAc(b1-4)[Fuc(a1-6)]GlcNAc
# Summary of the method: as §1
# [14] = molecular target: GlcNAc(b1-3)Gal(b1-4)GlcNAc(b1-3)Gal(b1-4)GlcNAc(b1-2)[GlcNAc(b1-3)Gal(b1-4)GlcNAc(b1-3)Gal(b1-4)GlcNAc(b1-6)]Man(a1-6)[GlcNAc(b1-3)Gal(b1-4)GlcNAc(b1-3)Gal(b1-4)GlcNAc(b1-2)Man(a1-3)]Man(b1-4)GlcNAc(b1-4)[Fuc(a1-6)]GlcNAc
# Summary of the method: as §1
# [15] = molecular target: GlcNAc(b1-3)Gal(b1-4)GlcNAc(b1-3)Gal(b1-4)GlcNAc(b1-3)Gal(b1-4)GlcNAc(b1-2)Man(a1-3)[GlcNAc(b1-3)Gal(b1-4)GlcNAc(b1-3)Gal(b1-4)GlcNAc(b1-3)Gal(b1-4)GlcNAc(b1-2)Man(a1-6)]Man(b1-4)GlcNAc(b1-4)GlcNAc
# Summary of the method: as §1
# [16] = molecular target: GlcNAc(b1-3)Gal(b1-4)GlcNAc(b1-3)Gal(b1-4)GlcNAc(b1-3)Gal(b1-4)GlcNAc(b1-2)Man(a1-3)[GlcNAc(b1-3)Gal(b1-4)GlcNAc(b1-3)Gal(b1-4)GlcNAc(b1-3)Gal(b1-4)GlcNAc(b1-2)Man(a1-6)]Man(b1-4)GlcNAc(b1-4)[Fuc(a1-6)]GlcNAc
# Summary of the method: as §1
# [17] = molecular target: GlcNAc(b1-3)Gal(b1-4)GlcNAc(b1-3)Gal(b1-4)GlcNAc(b1-3)Gal(b1-4)GlcNAc(b1-2)[GlcNAc(b1-3)Gal(b1-4)GlcNAc(b1-3)Gal(b1-4)GlcNAc(b1-3)Gal(b1-4)GlcNAc(b1-6)]Man(a1-6)[GlcNAc(b1-3)Gal(b1-4)GlcNAc(b1-3)Gal(b1-4)GlcNAc(b1-3)Gal(b1-4)GlcNAc(b1-2)Man(a1-3)]Man(b1-4)GlcNAc(b1-4)[Fuc(a1-6)]GlcNAc
# Summary of the method: as §1
# [18] = molecular target: GlcNAc(b1-3)Gal(b1-4)GlcNAc(b1-3)Gal(b1-4)GlcNAc(b1-3)Gal(b1-4)GlcNAc(b1-3)Gal(b1-4)GlcNAc(b1-2)Man(a1-3)[GlcNAc(b1-3)Gal(b1-4)GlcNAc(b1-3)Gal(b1-4)GlcNAc(b1-3)Gal(b1-4)GlcNAc(b1-3)Gal(b1-4)GlcNAc(b1-2)Man(a1-6)]Man(b1-4)GlcNAc(b1-4)GlcNAc
# Summary of the method: as §1
# [19] = molecular target: GlcNAc(b1-3)Gal(b1-4)GlcNAc(b1-3)Gal(b1-4)GlcNAc(b1-3)Gal(b1-4)GlcNAc(b1-3)Gal(b1-4)GlcNAc(b1-2)Man(a1-3)[GlcNAc(b1-3)Gal(b1-4)GlcNAc(b1-3)Gal(b1-4)GlcNAc(b1-3)Gal(b1-4)GlcNAc(b1-3)Gal(b1-4)GlcNAc(b1-2)Man(a1-6)]Man(b1-4)GlcNAc(b1-4)[Fuc(a1-6)]GlcNAc
# Summary of the method: as §1
# [20] = molecular target: GlcNAc(b1-3)Gal(b1-4)GlcNAc(b1-3)Gal(b1-4)GlcNAc(b1-3)Gal(b1-4)GlcNAc(b1-3)Gal(b1-4)GlcNAc(b1-2)[GlcNAc(b1-3)Gal(b1-4)GlcNAc(b1-3)Gal(b1-4)GlcNAc(b1-3)Gal(b1-4)GlcNAc(b1-3)Gal(b1-4)GlcNAc(b1-6)]Man(a1-6)[GlcNAc(b1-3)Gal(b1-4)GlcNAc(b1-3)Gal(b1-4)GlcNAc(b1-3)Gal(b1-4)GlcNAc(b1-3)Gal(b1-4)GlcNAc(b1-2)Man(a1-3)]Man(b1-4)GlcNAc(b1-4)[Fuc(a1-6)]GlcNAc
# Summary of the method: as §1
# [21] = molecular target: GlcNAc(b1-3)Gal(b1-4)GlcNAc(b1-3)Gal(b1-4)GlcNAc(b1-3)GalNAc
# Summary of the method: as §1
# [22] = molecular target: GlcNAc(b1-3)Gal(b1-4)GlcNAc(b1-3)GalNAc
# Summary of the method: as §1
# [23] = molecular target: GlcNAc(b1-3)Gal(b1-4)GlcNAc(b1-3)[GlcNAc(b1-3)Gal(b1-4)GlcNAc(b1-3)]GalNAc
# Summary of the method: as §1
# [24] = molecular target: GlcNAc(b1-3)Gal(b1-4)GlcNAc(b1-6)[Gal(b1-3)]GalNAc
# Summary of the method: as §1
# [25] = molecular target: GlcNAc(b1-3)Gal(b1-4)GlcNAc(b1-6)[GlcNAc(b1-3)Gal(b1-3)]GalNAc
# Summary of the method: as §1
# [26] = molecular target: GlcNAc(b1-3)Gal(b1-4)GlcNAc(b1-6)[GlcNAc(b1-3)]Gal(b1-4)GlcNAc
# Summary of the method: as §1
# GlcNAc(b1-3)GalNAc = molecular target: GlcNAc(b1-3)GalNAc
# Summary of the method: as §1
# GlcNAc(b1-3)Man = molecular target: GlcNAc(b1-3)Man
# Summary of the method: as §1
# [27] = molecular target: GlcNAc(b1-3)[GlcNAc(b1-4)][GlcNAc(b1-6)]GlcNAc
# Summary of the method: as §1
# [28] = molecular target: GlcNAc(b1-3)[GlcNAc(b1-6)]Gal(b1-4)GlcNAc
# Summary of the method: as §1
# [29] = molecular target: GlcNAc(b1-3)[GlcNAc(b1-6)]GalNAc
# Summary of the method: as §1
# [30] = molecular target: GlcNAc(b1-4)Gal(b1-4)GlcNAc
# Summary of the method: as §1
# GlcNAc(b1-4)GlcNAc = molecular target: GlcNAc(b1-4)GlcNAc
# Summary of the method: as §1
# [31] = molecular target: GlcNAc(b1-4)GlcNAc(b1-4)GlcNAc
# Summary of the method: as §1
# [32] = molecular target: GlcNAc(b1-4)GlcNAc(b1-4)GlcNAc(b1-4)GlcNAc(b1-4)GlcNAc
# Summary of the method: as §1
binder,measurement,setting,value
SAOUHSC 00176 (Staphylococcus aureus) (protein) MSKILKCITLAVVMLLIVTACGPNRSKEDIDKALNKDNSKDKPNQLTMWVDGDKQMAFYKKITDQYTKKTGIKVKLVNIGQNDQLENISLDAPAGKGPDIFFLAHDNTGSAYLQGLAAEIKLSKDELKGFNKQALKAMNYDNKQLALPAIVETTALFYNKKLVKNAPQTLEEVEANAAKLTDSKKKQYGMLFDAKNFYFNYPFLFGNDDYIFKKNGSEYDIHQLGLNSKHVVKNAERLQKWYDKGYLPKAATHDVMIGLFKEGKVGQFVTGPWNINEYQETFGKDLGVTTLPTDGGKPMKPFLGVRGWYLSEYSKHKYWAKDLMLYITSKDTLQKYTDEMSEITGRVDVKSSNPNLKVFEKQARHAEPMPNIPEMRQVWEPMGNASIFISNGKNPKQALDEATNDITQNIKILHPSQNDKKGD,glycan array binding signal (z-score),[1],-0.128
same,glycan array binding signal (z-score),[2],-0.086
same,glycan array binding signal (z-score),[3],-0.091
same,glycan array binding signal (z-score),[4],-0.122
same,glycan array binding signal (z-score),[5],-0.145
same,glycan array binding signal (z-score),GlcNAc(b1-3)Fuc,-0.027
same,glycan array binding signal (z-score),GlcNAc(b1-3)Gal,-0.146
same,glycan array binding signal (z-score),[6],-0.061
same,glycan array binding signal (z-score),GlcNAc(b1-3)Gal(b1-4)Glc,-0.067
same,glycan array binding signal (z-score),[7],-0.057
same,glycan array binding signal (z-score),[8],-0.101
same,glycan array binding signal (z-score),[9],-0.091
same,glycan array binding signal (z-score),[10],-0.044
same,glycan array binding signal (z-score),[11],-0.091
same,glycan array binding signal (z-score),[12],-0.03
same,glycan array binding signal (z-score),[13],0.034
same,glycan array binding signal (z-score),[14],-0.059
same,glycan array binding signal (z-score),[15],-0.088
same,glycan array binding signal (z-score),[16],-0.04
same,glycan array binding signal (z-score),[17],-0.05
same,glycan array binding signal (z-score),[18],-0.032
same,glycan array binding signal (z-score),[19],-0.044
same,glycan array binding signal (z-score),[20],-0.055
same,glycan array binding signal (z-score),[21],-0.153
same,glycan array binding signal (z-score),[22],-0.042
same,glycan array binding signal (z-score),[23],-0.02
same,glycan array binding signal (z-score),[24],-0.023
same,glycan array binding signal (z-score),[25],-0.075
same,glycan array binding signal (z-score),[26],-0.141
same,glycan array binding signal (z-score),GlcNAc(b1-3)GalNAc,-0.105
same,glycan array binding signal (z-score),GlcNAc(b1-3)Man,-0.021
same,glycan array binding signal (z-score),[27],-0.137
same,glycan array binding signal (z-score),[28],-0.01
same,glycan array binding signal (z-score),[29],-0.149
same,glycan array binding signal (z-score),[30],-0.028
same,glycan array binding signal (z-score),GlcNAc(b1-4)GlcNAc,-0.082
same,glycan array binding signal (z-score),[31],-0.123
same,glycan array binding signal (z-score),[32],-0.044
